# According to the supplement of paper PMC8728848:
# Some of the results follow.
# What was measured:
# Experiment in all cases: glycan array binding signal (z-score within array); higher = stronger binding
# Conditions in all cases: glycan notation: IUPAC condensed, linker removed
# [1] = target: Neu5Ac(a2-6)Gal(b1-4)GlcNAc(b1-6)GalNAc
# Procedure, shortened: (§1)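 Negative Z-scores can be read as non-binding. The Z-score is calculated within each array and then averaged across arrays of one protein sequence at different concentrations or buffers and across linkers. Arrays, 3228 in all, were curated from the Consortium for Functional Glycomics database and kept only where the protein sequence was available.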
# [2] = target: Neu5Ac(a2-6)Gal(b1-4)GlcNAc(b1-6)[Gal(b1-3)GlcNAc(b1-3)]Gal(b1-4)Glc
# Procedure, shortened: as §1
# [3] = target: Neu5Ac(a2-6)Gal(b1-4)GlcNAc(b1-6)[Gal(b1-3)]GalNAc
# Procedure, shortened: as §1
# [4] = target: Neu5Ac(a2-6)Gal(b1-4)GlcNAc6S
# Procedure, shortened: as §1
# [5] = target: Neu5Ac(a2-6)GalNAc
# Procedure, shortened: as §1
# [6] = target: Neu5Ac(a2-6)GalNAc(b1-4)GlcNAc
# Procedure, shortened: as §1
# [7] = target: Neu5Ac(a2-6)GalNAc(b1-4)GlcNAc6S
# Procedure, shortened: as §1
# [8] = target: Neu5Ac(a2-6)GlcNAc(b1-4)GlcNAc
# Procedure, shortened: as §1
# [9] = target: Neu5Ac(a2-6)GlcNAc(b1-4)GlcNAc(b1-4)GlcNAc
# Procedure, shortened: as §1
# [10] = target: Neu5Ac(a2-8)Neu5Ac
# Procedure, shortened: as §1
# [11] = target: Neu5Ac(a2-8)Neu5Ac(a2-3)Gal(b1-3)GalNAc(b1-4)[Neu5Ac(a2-3)]Gal(b1-4)Glc
# Procedure, shortened: as §1
# [12] = target: Neu5Ac(a2-8)Neu5Ac(a2-3)Gal(b1-3)GalNAc(b1-4)[Neu5Ac(a2-8)Neu5Ac(a2-3)]Gal(b1-4)Glc
# Procedure, shortened: as §1
# [13] = target: Neu5Ac(a2-8)Neu5Ac(a2-3)Gal(b1-4)Glc
# Procedure, shortened: as §1
# [14] = target: Neu5Ac(a2-8)Neu5Ac(a2-3)Gal(b1-4)GlcNAc
# Procedure, shortened: as §1
# [15] = target: Neu5Ac(a2-8)Neu5Ac(a2-3)[Gal(b1-3)GalNAc(b1-4)]Gal(b1-4)Glc
# Procedure, shortened: as §1
# [16] = target: Neu5Ac(a2-8)Neu5Ac(a2-3)[GalNAc(b1-4)]Gal(b1-4)Glc
# Procedure, shortened: as §1
# [17] = target: Neu5Ac(a2-8)Neu5Ac(a2-8)Neu5Ac
# Procedure, shortened: as §1
# [18] = target: Neu5Ac(a2-8)Neu5Ac(a2-8)Neu5Ac(a2-3)Gal(b1-4)Glc
# Procedure, shortened: as §1
# [19] = target: Neu5Ac(a2-8)Neu5Ac(a2-8)Neu5Ac(a2-3)[Gal(b1-3)GalNAc(b1-4)]Gal(b1-4)Glc
# Procedure, shortened: as §1
# [20] = target: Neu5Ac(a2-8)Neu5Ac(a2-8)Neu5Ac(a2-3)[GalNAc(b1-4)]Gal(b1-4)Glc
# Procedure, shortened: as §1
# [21] = target: Neu5Ac(a2-8)Neu5Ac(a2-8)Neu5Ac(a2-8)Neu5Ac(a2-3)[GalNAc(b1-4)]Gal(b1-4)Glc
# Procedure, shortened: as §1
# [22] = target: Neu5Ac(a2-8)Neu5Gc(a2-3)Gal(b1-4)GlcNAc
# Procedure, shortened: as §1
# [23] = target: Neu5Ac(b2-6)Gal(b1-4)GlcNAc
# Procedure, shortened: as §1
# [24] = target: Neu5Ac(b2-6)GalNAc
# Procedure, shortened: as §1
# [25] = target: Neu5Ac9Ac(a2-3)Gal(b1-3)GlcNAc
# Procedure, shortened: as §1
# [26] = target: Neu5Ac9Ac(a2-3)Gal(b1-4)GlcNAc
# Procedure, shortened: as §1
# [27] = target: Neu5Ac9Ac(a2-6)Gal(b1-4)GlcNAc
# Procedure, shortened: as §1
# [28] = target: Neu5Gc(a2-3)Gal(b1-3)GlcNAc
# Procedure, shortened: as §1
# [29] = target: Neu5Gc(a2-3)Gal(b1-3)[Fuc(a1-4)]GlcNAc
# Procedure, shortened: as §1
# [30] = target: Neu5Gc(a2-3)Gal(b1-4)Glc
# Procedure, shortened: as §1
# [31] = target: Neu5Gc(a2-3)Gal(b1-4)GlcNAc
# Procedure, shortened: as §1
# [32] = target: Neu5Gc(a2-3)Gal(b1-4)GlcNAc(b1-3)Gal(b1-4)GlcNAc(b1-2)Man(a1-3)[Neu5Gc(a2-3)Gal(b1-4)GlcNAc(b1-3)Gal(b1-4)GlcNAc(b1-2)Man(a1-6)]Man(b1-4)GlcNAc(b1-4)GlcNAc
# Procedure, shortened: as §1
# [33] = target: Neu5Gc(a2-3)Gal(b1-4)[Fuc(a1-3)]GlcNAc
# Procedure, shortened: as §1
# [34] = target: Neu5Gc(a2-6)Gal(b1-4)GlcNAc
# Procedure, shortened: as §1
# [35] = target: Neu5Gc(a2-6)GalNAc
# Procedure, shortened: as §1
# [36] = target: Neu5Gc(a2-8)Neu5Ac(a2-3)Gal(b1-4)GlcNAc
# Procedure, shortened: as §1
# [37] = target: Neu5Gc(a2-8)Neu5Gc(a2-3)Gal(b1-4)GlcNAc
# Procedure, shortened: as §1
# [38] = target: Neu5Gc(a2-8)Neu5Gc(a2-3)Gal(b1-4)GlcNAc(b1-3)Gal(b1-4)GlcNAc
# Procedure, shortened: as §1
binder,measurement,setting,value
GS7807H-bfa-490-18-490 (Bacteroides fragilis) (protein) GNLEEMNIDPDNATQTHPKLLLTQICMNAFKRGTDGMYATKKVIQADGESADQYYKWTRGSFGYYDNLRNVQKMGEEAERVNAPVYTALTKFFRAYYFYELTLRFGDIPYSQALKGEKEEIYTPEYDAQEDVFAGILQELREADEILANDASVIDGDIIYNGNSTQWRKLINSFRLKVLMTLSNHTTVGNINIASEFKNIATNSPLMNSLADNGQLVYLDQQGNRYPQFNAQWSGYYMDDTFIQRMRERRDPRLFIFSAQTNKGKTEGKPIDDFSSYEGGDPAAPYSDAIIKVSEGTISPINDRFRTDPIVEPTMLMGYAELQQILAEAVVRGWISGNAQTYYEKGIRASFSFYETHAKDYAGYLNENAVAQYLKEPLVDFTQASGTEEQIERIIMQKYLVTFYQGNWDSFYEQLRTGYPDFRRPAGTEIPKRWMYPQGEYDNNGTNVETAITRQFGAGNDKINQATWWQKKS,glycan array binding signal (z-score),[1],-0.455
same,glycan array binding signal (z-score),[2],-0.089
same,glycan array binding signal (z-score),[3],-0.008
same,glycan array binding signal (z-score),[4],-0.946
same,glycan array binding signal (z-score),[5],-0.716
same,glycan array binding signal (z-score),[6],-0.192
same,glycan array binding signal (z-score),[7],-0.329
same,glycan array binding signal (z-score),[8],-0.559
same,glycan array binding signal (z-score),[9],-0.38
same,glycan array binding signal (z-score),[10],-0.459
same,glycan array binding signal (z-score),[11],0.329
same,glycan array binding signal (z-score),[12],1.91
same,glycan array binding signal (z-score),[13],-0.502
same,glycan array binding signal (z-score),[14],-0.843
same,glycan array binding signal (z-score),[15],0.547
same,glycan array binding signal (z-score),[16],-0.085
same,glycan array binding signal (z-score),[17],-0.171
same,glycan array binding signal (z-score),[18],-0.628
same,glycan array binding signal (z-score),[19],0.502
same,glycan array binding signal (z-score),[20],0.152
same,glycan array binding signal (z-score),[21],-0.425
same,glycan array binding signal (z-score),[22],-0.612
same,glycan array binding signal (z-score),[23],-0.202
same,glycan array binding signal (z-score),[24],-0.874
same,glycan array binding signal (z-score),[25],-0.08
same,glycan array binding signal (z-score),[26],-0.142
same,glycan array binding signal (z-score),[27],-0.14
same,glycan array binding signal (z-score),[28],-0.413
same,glycan array binding signal (z-score),[29],-0.469
same,glycan array binding signal (z-score),[30],-0.812
same,glycan array binding signal (z-score),[31],0.319
same,glycan array binding signal (z-score),[32],-0.11
same,glycan array binding signal (z-score),[33],0.477
same,glycan array binding signal (z-score),[34],-0.62
same,glycan array binding signal (z-score),[35],0.648
same,glycan array binding signal (z-score),[36],-0.287
same,glycan array binding signal (z-score),[37],-0.28
same,glycan array binding signal (z-score),[38],-0.111
